Reference: PubChem BioAssay AID504332 (National Center for Advancing Translational Sciences (NCATS), 2011)
The whole screen tested about 350,000 compounds, of which about 31,000 (8.9%) were called active. The inconclusive results got no clear call from the source; some entries with a clear call stand among them for comparison. The call rests on the fitted dose curve; in most records, active means well fitted inhibition curve with a large enough effect; inconclusive means small, poorly fitted or top-dose-only effect; inactive means no such curve, though single readings can be large or run the other way. Where the call is inconclusive, the potency comes from a doubtful curve fit.

target: Histone-lysine N-methyltransferase EHMT2 (Homo sapiens) (UniProt Q96KQ7); experiment: qHTS Assay for Inhibitors of Histone Lysine Methyltransferase G9a; conditions: G9a H3K9 monomethylation, AlphaScreen, 2 h; activity, negative = inhibition: at 59 µM (top of the series) unless noted; further: nearly all actives have a fitted effect of over 75% in size
UniProt Q96KQ7, sequence (Q96KQ7 whole entry, looked up): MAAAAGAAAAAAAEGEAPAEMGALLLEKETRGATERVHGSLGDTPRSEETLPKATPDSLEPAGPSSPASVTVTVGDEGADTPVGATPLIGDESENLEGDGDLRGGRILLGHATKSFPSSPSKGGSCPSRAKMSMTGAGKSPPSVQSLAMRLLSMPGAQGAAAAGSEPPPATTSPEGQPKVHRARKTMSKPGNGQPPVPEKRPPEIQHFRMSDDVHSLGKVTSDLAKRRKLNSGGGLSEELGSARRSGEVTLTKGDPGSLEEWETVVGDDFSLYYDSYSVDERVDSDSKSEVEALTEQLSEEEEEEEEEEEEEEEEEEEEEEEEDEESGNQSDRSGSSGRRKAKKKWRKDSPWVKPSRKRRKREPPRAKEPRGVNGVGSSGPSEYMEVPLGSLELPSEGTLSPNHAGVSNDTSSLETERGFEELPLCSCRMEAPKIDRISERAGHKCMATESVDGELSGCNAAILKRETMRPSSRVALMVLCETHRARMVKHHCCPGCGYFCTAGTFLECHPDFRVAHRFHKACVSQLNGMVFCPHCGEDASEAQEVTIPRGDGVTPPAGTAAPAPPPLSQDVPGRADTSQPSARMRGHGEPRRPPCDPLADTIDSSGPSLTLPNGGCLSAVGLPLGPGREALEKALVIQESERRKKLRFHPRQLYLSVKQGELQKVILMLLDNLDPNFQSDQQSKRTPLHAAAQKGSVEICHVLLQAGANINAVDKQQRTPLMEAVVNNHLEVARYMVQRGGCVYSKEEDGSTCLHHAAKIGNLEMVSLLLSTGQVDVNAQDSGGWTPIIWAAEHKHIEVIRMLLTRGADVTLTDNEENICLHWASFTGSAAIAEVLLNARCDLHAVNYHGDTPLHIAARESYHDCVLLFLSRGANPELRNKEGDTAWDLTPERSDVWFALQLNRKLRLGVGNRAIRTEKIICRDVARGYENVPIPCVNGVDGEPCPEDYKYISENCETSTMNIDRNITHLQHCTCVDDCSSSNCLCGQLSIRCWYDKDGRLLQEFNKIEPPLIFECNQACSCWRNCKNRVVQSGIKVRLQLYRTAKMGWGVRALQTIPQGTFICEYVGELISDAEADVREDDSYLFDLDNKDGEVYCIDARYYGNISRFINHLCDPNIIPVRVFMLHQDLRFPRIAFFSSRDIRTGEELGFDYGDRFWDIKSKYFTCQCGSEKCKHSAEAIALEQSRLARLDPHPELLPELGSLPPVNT
How it was run: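 Compounds were preincubated with 20 nM G9a for 15 min, after which biotinylated H3K9 peptide (500 nM) and SAM (20 uM) started a 2 h room-temperature reaction. Monomethylated product was quantified by antibody-based AlphaScreen chemiluminescence.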
On the % scale 0 is the no-effect control and ±100 the full control effect; potency means the concentration at half of the fitted maximal effect; tags describe the fitted curve by direction and shape.

Row | SMILES | Potency | activity, negative = inhibition
1 | CC1(C)Cc2c(C#N)c(SCCC#N)nc(N3CCOCC3)c2CO1 | inconclusive: 63.1 µM [inhibitor, single point] | –
2 | CCN(CC(=O)NCc1cccs1)C(=O)CCC(=O)c1ccc(C)cc1 | inconclusive: 89.1 µM [inhibitor, partial curve, poor fit] | –
3 | CCCNC(=O)CCn1cc(-c2ccc(OC)cc2)nc1CCN | – | inactive: -5.65% [at 2.33 µM]
4 | C=CCNc1nc(NCc2ccccc2)c(C#N)c2c1CN(C)CC2 | inconclusive: 35.5 µM [inhibitor, single point] | –
5 | COc1ccc2c(c1)c1c(c(=O)n(-c3cccc(Cl)c3)c(=O)n1CC(=O)NCC1CCCO1)n2C (stereo not drawn) | – | inactive: -2.93%
6 | CCN(CC)c1ccc(N2C(=O)/C(=C/c3cccs3)SC2=S)cc1 | inconclusive: 1.41 µM [inhibitor, full curve, poor fit] | –
7 | CC(C)C(NC(=O)Cc1ccccc1)C(=O)N1CCN(c2cccc(Cl)c2)CC1 (stereo not drawn) | – | inactive: 6.12% [at 2.33 µM]
8 | Cc1nnc(NC(=O)CCC(=O)NCc2ccco2)s1 | inconclusive: 89.1 µM [inhibitor, single point] | –
9 | Cc1nn(-c2ccccc2)c(OC(=O)c2ccccc2Cl)c1S(=O)(=O)c1ccccc1 | inconclusive: 28.2 µM [inhibitor, single point] | –
10 | Cc1ccc(C2CC(=O)NC(SCC(=O)Nc3nccs3)=C2C#N)cc1 (stereo not drawn) | – | inconclusive: -82.3% [inhibitor]
11 | CCOc1ccc(Br)cc1S(=O)(=O)Nc1ncn[nH]1 | inconclusive: 56.2 µM [inhibitor, partial curve, poor fit] | –
12 | COc1ccccc1N1CCN(C(=O)c2ccccc2SCC(=O)NCc2ccco2)CC1 | active: 50.1 µM | –
13 | CCCC(=O)NC(=S)Nc1cc(-c2nc3ncccc3o2)ccc1C | inconclusive: 44.7 µM [inhibitor, partial curve, poor fit] | –
14 | CS(=O)(=O)c1ccc(Cl)c(NC(=O)COC(=O)c2ncc(Cl)c(Cl)c2Cl)c1 | inconclusive: 11.2 µM [inhibitor, partial curve, poor fit] | –
15 | CCOCCCNCC(O)c1ccccc1 (stereo not drawn) | active: 1.78 µM | –
16 | CCc1nn2c(=O)cc(COC(=O)c3ccccc3NC(=O)COc3ccc(F)cc3)nc2s1 | – | inactive: 2.18% [at 12.7 µM]
17 | CC1=CC2=NC(=O)/C(=C\c3cccn3CCOc3cccc(C)c3)C(=N)N2O1 | – | inactive: 2.6%
18 | COc1ccc(C(C)=O)cc1CSc1nnc(Nc2ccc(C)cc2)s1 | active: 10 µM | –
19 | Cc1cc(C)c(S(=O)(=O)N2CCN(C(=O)CN3C(=O)NC4(CCCC4)C3=O)CC2)c(C)c1 | – | inactive: 19.3% [at 102 µM]
20 | CC(=O)c1ccc(C(=O)N2CCCC(Nc3ccc(C(C)C)cc3)C2)s1 (stereo not drawn) | inconclusive: 79.4 µM [inhibitor, single point] | –
21 | COc1ccccc1C(=O)NCCSc1c(C)[nH]c2ccccc12 | inconclusive: 25.1 µM [inhibitor, partial curve, poor fit] | –
22 | COC(=O)c1ccccc1NC(=O)Cn1cnc2ccc(S(=O)(=O)N3CCC(C)CC3)cc2c1=O | inconclusive: 0.631 µM [inhibitor, partial curve, poor fit] | –
23 | O=[N+]([O-])c1cc(CN2CCC(O)CC2)ccc1Cl | active: 12.6 µM | –

Row | SMILES | Potency | activity, negative = inhibition
24 | O=C(Nc1nnc(SCc2ccc(F)cc2)s1)c1ccco1 | inconclusive: 1.58 µM [inhibitor, partial curve, poor fit] | –
25 | COC(C(=O)Nc1ccnn1C1CCN(Cc2cnn(C(C)C)c2)CC1)c1ccccc1 (stereo not drawn) | – | inactive: 16.2% [at 102 µM]
26 | CC(Sc1nc(N)cc(=O)[nH]1)C(=O)Nc1nc2c(s1)CCCC2 (stereo not drawn) | inconclusive: 79.4 µM [inhibitor, single point] | –
27 | Cc1cccc(C(=O)NCC(=O)OCC(=O)NC2CCCCCCC2)c1 | inconclusive: 89.1 µM [inhibitor, partial curve, poor fit] | –
28 | CCC(NC(=O)Nc1ccc(OC)c(OC)c1)c1c(-n2cccc2)sc2c1CCN(C)C2 (stereo not drawn) | inconclusive: 10 µM [inhibitor, partial curve, poor fit] | –
29 | CCOc1cc(/C=C2\NC(=S)N(c3c(C)n(C)n(-c4ccccc4)c3=O)C2=O)ccc1O | inconclusive: 28.2 µM [inhibitor, single point] | –
30 | Cc1nnc(SCC(=O)Nn2cnnc2)s1 | – | inactive: 2.7% [at 102 µM]
31 | COc1ccc(-c2nc3ccccc3o2)cc1NC(=O)C(C)(C)Oc1ccc(Br)cc1 | – | inactive: -19.9%
32 | Cc1c(O)c2c3c(cccc3c1O)C(=O)N(c1ccccc1)C2=O | inconclusive: 89.1 µM [inhibitor, single point] | –
33 | c1ccc(-n2c(-c3ccncc3)nnc2-c2ccco2)cc1 | inconclusive: 79.4 µM [inhibitor, single point] | –
34 | c1coc(-c2nnc3sc(Cc4cccs4)nn23)c1 | inconclusive: 3.16 µM [inhibitor, partial curve, poor fit] | –
35 | COc1ccc(C(CNC(=O)c2ccc(S(=O)(=O)Nc3ccc(F)cc3)cc2)N(C)C)cc1 (stereo not drawn) | – | inactive: -7.38% [at 102 µM]
36 | COc1cc(NC(=O)c2cnc(N)o2)cc(C(=O)Nc2cccc(C(F)(F)F)c2)c1 | – | inactive: -42.3%
37 | CN(C)c1cc[n+](CC(=O)Nc2ccc(Cl)c([N+](=O)[O-])c2)cc1 | inconclusive: 89.1 µM [inhibitor, single point] | –
38 | CC(C)C[C@H](NC(=O)c1nc[nH]c1C(=O)N(C)Cc1ccccc1)C(=O)OC(C)(C)C | – | inactive: -7.31% [at 12.7 µM]
39 | CCOC(=O)c1sc(NC(=O)c2cncc(Br)c2)nc1C | – | inactive: 6.96%
40 | CCOc1c(Br)cc(CNc2ccc(N3CCN(C(C)=O)CC3)cc2)cc1OC | active: 28.2 µM | –
41 | COc1cc(OC)cc(C(=O)Nn2cc(C(=O)Nc3c(F)cccc3F)c3ccccc3c2=O)c1 | inconclusive: 89.1 µM [inhibitor, single point] | –
42 | Cc1cc(C(=O)CSc2nc(N)cc(=O)[nH]2)c(C)n1-c1cccc(F)c1 | inconclusive: 89.1 µM [inhibitor, single point] | –
43 | O=c1cc(CSc2ccccc2)[nH]c2ccccc12 | – | inactive: 3.54% [at 102 µM]
44 | O=C(CN1C(=O)CCC1=O)Nc1nc(-c2nc3ccccc3s2)cs1 | inconclusive: 25.1 µM [inhibitor, single point] | –
45 | COc1cccc(N2CCN(C(=O)CCS(=O)(=O)c3ccc4c(c3)CC(=O)N4C)CC2)c1 | – | inactive: 5.43%
46 | O=C(Nc1ccc2c(c1)OCCO2)C1CCCN(S(=O)(=O)c2cccnc2)C1 (stereo not drawn) | inconclusive: 1.12 µM [inhibitor, partial curve, poor fit] | –

Row | SMILES | Potency | activity, negative = inhibition
47 | CCN(CC)S(=O)(=O)c1ccc(NC(=O)c2cc(C(=O)OC)cc([N+](=O)[O-])c2)cc1 | inconclusive: 31.6 µM [inhibitor, partial curve, poor fit] | –
48 | CCOc1ccc(NC(=O)c2ccc(NC(=O)c3ccccc3Br)cc2)cc1 | inconclusive: 79.4 µM [inhibitor, partial curve, poor fit] | –
49 | Cc1ccc(S(=O)(=O)N2N=C3CCCCC3C2(O)C(F)(F)F)cc1 (stereo not drawn) | inconclusive: 35.5 µM [inhibitor, full curve] | –
50 | Cc1ccc(-n2nnnc2SCC(=O)N(CC(C)C)c2c(N)n(CC(C)C)c(=O)[nH]c2=O)cc1 | – | inactive: -32.3% [at 102 µM]
51 | COCCCn1c(=O)c2sccc2n2c(CCCC(=O)NCc3ccccc3)nnc12 | inconclusive: 39.8 µM [inhibitor, single point] | –
52 | Cn1c(=O)c2c(nc(N/N=C/c3cccnc3)n2Cc2ccccc2)n(C)c1=O | inconclusive: 50.1 µM [inhibitor, partial curve, poor fit] | –
53 | COc1ccc(NC(=O)Cn2c(=O)n(-c3cccc(C)c3)c(=O)c3c2c2cc(C)ccc2n3C)cc1Cl | – | inactive: -30.3%
54 | COc1cc(CN2CCc3ccc(NC(=O)CCc4ccccc4OC)cc3C2)ccc1O | active: 44.7 µM | –
55 | Cc1csc(NC(=O)CSc2nnc(Cc3cccn3C)n2-c2ccc(F)cc2)n1 | inconclusive: 28.2 µM [inhibitor, single point] | –
56 | CC1Cc2ccccc2N1C(=O)CN(C)CC(=O)Nc1cccc(F)c1 (stereo not drawn) | – | inactive: 22.7% [at 12.7 µM]
57 | Cn1c(Cn2c(=O)sc3ccccc32)nnc1SCC(=O)NC1CCCC1 | – | inactive: 12.3%
58 | O=[N+]([O-])c1cccnc1NCCNc1ncc(C(F)(F)F)cc1Cl | inconclusive: 89.1 µM [inhibitor, single point] | –
59 | Cc1ccn2c(=O)nc(SCC(=O)Nc3cc(C)on3)nc2c1 | inconclusive: 79.4 µM [inhibitor, single point] | –
60 | Cc1ccnc(NS(=O)(=O)c2ccc(N3C(=O)c4c(Cl)c(Cl)c(Cl)c(Cl)c4C3=O)cc2)n1 | inconclusive: 31.6 µM [inhibitor, single point] | –
61 | Cc1ncc(CO)c2c1Oc1nc(-c3ccccc3)nc(SCC(=O)N3CCCCC3)c1C2 | active: 39.8 µM | –
62 | COCCNc1ccc(S(=O)(=O)N2CCCC2)cc1[N+](=O)[O-] | – | inactive: -7.8% [at 102 µM]
63 | CCC(C)N(C(=O)CSc1nnc(C)n1C)C1CCS(=O)(=O)C1 (stereo not drawn) | inconclusive: 11.2 µM [inhibitor, partial curve, poor fit] | –
64 | CCOc1ccccc1NC(=O)Cn1c(=O)oc2cc(S(=O)(=O)NCc3ccccc3)ccc21 | – | inactive: 6.53%
65 | CCn1c(SCC(=O)c2cccs2)nnc1-c1ccco1 | active: 50.1 µM | –
66 | CN(C)c1ccc(CNC(=O)C2CCCN(S(=O)(=O)c3ccc4c(ccn4C)c3)C2)cc1 (stereo not drawn) | inconclusive: 3.16 µM [inhibitor, partial curve, poor fit] | –
67 | Cc1ccc(CNC(=O)C2CCN(S(=O)(=O)Cc3ccccc3)CC2)cc1 | – | inactive: -38.9%
68 | COc1cc(NC(=O)c2ccccc2)c(OC)cc1NC(=O)CSc1[nH]c(=O)cc(C)c1C#N | – | inactive: -7.85% [at 102 µM]
